# Screen size: about 360,000 compounds; about 660 (0.18%) were called active. This list was built around the results that the source calls inconclusive (neither active nor inactive); the mix of calls is not that of the screen. The call rests on the fitted dose curve; in most records, active means well fitted inhibition curve with a large enough effect; inconclusive means small, poorly fitted or top-dose-only effect; inactive means no such curve, though single readings can be large or run the other way. Potencies of inconclusive entries are left out as doubtful fits.
# Target: Rap guanine nucleotide exchange factor 4 (Homo sapiens) (UniProt Q8WZA2)
# Chain of UniProt Q8WZA2 (Q8WZA2 whole entry, looked up): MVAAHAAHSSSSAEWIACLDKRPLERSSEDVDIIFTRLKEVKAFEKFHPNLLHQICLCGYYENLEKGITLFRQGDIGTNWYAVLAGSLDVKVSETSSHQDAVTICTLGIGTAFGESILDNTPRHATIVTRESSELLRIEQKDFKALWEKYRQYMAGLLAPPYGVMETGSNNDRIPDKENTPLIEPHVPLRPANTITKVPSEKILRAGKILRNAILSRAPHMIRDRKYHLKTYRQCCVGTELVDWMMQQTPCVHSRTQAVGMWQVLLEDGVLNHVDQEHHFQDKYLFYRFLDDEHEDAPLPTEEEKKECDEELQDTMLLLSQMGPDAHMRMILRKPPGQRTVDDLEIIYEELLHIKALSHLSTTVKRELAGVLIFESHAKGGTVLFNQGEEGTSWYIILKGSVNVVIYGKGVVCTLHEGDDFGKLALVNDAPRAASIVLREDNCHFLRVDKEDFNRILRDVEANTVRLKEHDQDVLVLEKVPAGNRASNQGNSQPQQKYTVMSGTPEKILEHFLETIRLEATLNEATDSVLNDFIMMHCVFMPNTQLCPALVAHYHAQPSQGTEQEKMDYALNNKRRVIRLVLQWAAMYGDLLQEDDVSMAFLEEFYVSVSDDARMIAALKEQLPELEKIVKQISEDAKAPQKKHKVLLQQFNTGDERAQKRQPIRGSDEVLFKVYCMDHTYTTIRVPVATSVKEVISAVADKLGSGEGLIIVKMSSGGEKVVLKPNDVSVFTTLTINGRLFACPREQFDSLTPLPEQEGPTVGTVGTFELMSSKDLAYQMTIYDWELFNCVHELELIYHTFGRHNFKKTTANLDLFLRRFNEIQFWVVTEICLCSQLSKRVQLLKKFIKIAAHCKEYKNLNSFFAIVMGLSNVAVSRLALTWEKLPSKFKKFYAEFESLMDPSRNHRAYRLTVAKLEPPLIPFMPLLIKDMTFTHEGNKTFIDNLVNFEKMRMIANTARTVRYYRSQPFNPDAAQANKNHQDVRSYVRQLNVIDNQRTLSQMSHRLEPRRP
# Experiment: qHTS for Antagonist of cAMP-regulated guanine nucleotide exchange factor 2 (EPAC2): primary screen; further: nearly all actives have a fitted effect of over 45% in size
# Details: EPAC2 GEF exchange of Rap1B-BODIPY-GDP, fluorescence; activity, negative = inhibition: at 114 µM (top of the series) unless noted
# On the % scale 0 is the no-effect control and ±100 the full control effect; potency means the concentration at half of the fitted maximal effect; tags describe the fitted curve by direction and shape.
SMILES,Potency,"activity, negative = inhibition"
O=C1c2cccc3c(O)ccc(c23)C(=O)N1Cc1ccccc1,inactive,
COc1ccc(C(=O)NCc2nnc(SCC(=O)N3CCCCC3)o2)cc1,inactive,
COc1cccc(C(NC(C)=O)c2nc(-c3csc4ccccc34)cs2)c1 (configuration not stated),"inconclusive [inhibitor, single point]",
CO/N=C(/COc1ccc(F)cc1)c1ccc(OC)cc1,"inconclusive [inhibitor, full curve]",
Cc1ccc(O)c(-c2[nH]ncc2C(=O)c2ccc(Br)cc2)c1,"inconclusive [inhibitor, partial curve]",
CC(N=C(NC#N)Nc1ccncc1)C(C)(C)C (configuration not stated),"inconclusive [inhibitor, single point]",
CC(=O)NC(C)(c1ccccc1)c1nc(-c2cccc(C(F)(F)F)c2)cs1 (configuration not stated),"inconclusive [inhibitor, single point]",
C=CCOc1ccc(/C=C2\SC(=S)N(NS(=O)(=O)c3ccccc3)C2=O)cc1,"inconclusive [inhibitor, partial curve]",
Cc1ccccc1-c1cccc([C@@H]2C[C@H]3[C@H](CON3C)CN2Cc2ccccc2)c1,"inconclusive [inhibitor, full curve]",
COc1ccc(C2CC(c3cccs3)=NN2C(=O)c2ccco2)cc1OC (configuration not stated),"inconclusive [inhibitor, partial curve]",
Clc1ccc(OCc2noc(-c3ccsc3)n2)c(Cl)c1,inactive,
CCOc1cc([N+](=O)[O-])cc(/C=C2/NC(=O)N(Cc3ccccc3F)C2=O)c1O,"inconclusive [inhibitor, partial curve]",
CN1CCS/C1=C/C=C1\SC(=S)N(CC(=O)O)C1=O,"inconclusive [inhibitor, partial curve]",
O=C(CSc1nc2ccc(Cl)cc2[nH]1)c1ccc2c(c1)OCO2,inactive,
O=C(O)CCc1ccc(S(=O)(=O)Nc2cc(C(F)(F)F)ccc2N2CCCC2)cc1,inactive,
CN(CC(=O)NC(=O)NCc1ccccc1)CC(=O)Nc1ccc(Cl)c(C(F)(F)F)c1,"inconclusive [inhibitor, full curve, poor fit]",
CC1(C(=O)NS(=O)(=O)c2ccc(Cl)s2)CCN1C(=O)Cc1cc(F)ccc1F (configuration not stated),"inconclusive [inhibitor, single point]",
CCOC(=O)c1cnc(SCc2ccc(C(C)(C)C)cc2)nc1N,inactive,
Cc1ccc(-c2csc3ncn(C(C)C(=O)O)c(=O)c23)cc1 (configuration not stated),inactive,
CCCc1ccc2oc(C(=O)N(C)Cc3nccs3)c(C)c2c1,"inconclusive [inhibitor, partial curve]",
COC(=O)[C@@H]1Cc2c([nH]c3ccccc23)C(C)N1C(=O)c1ccccc1 (some centres not stated),"inconclusive [inhibitor, partial curve]",
O=C(O)c1cccc(N/N=C(\N=Nc2ccccc2)c2ccccc2)c1,"inconclusive [inhibitor, single point]",
CSc1nc(S(=O)(=O)c2ccccc2)c(Cl)s1,"inconclusive [inhibitor, full curve]",

SMILES,Potency,"activity, negative = inhibition"
C[C@H](CO)N1C[C@H](C)[C@@H](CN(C)Cc2ccc(C(=O)O)cc2)Oc2c(NC(=O)C3CC3)cccc2C1=O,"inconclusive [inhibitor, full curve]",
CC1(Cc2ccc(F)cc2)C(=O)Nc2c(Cl)ccc(Cl)c21 (configuration not stated),"inconclusive [inhibitor, partial curve]",
CCOC(=O)C1(C)C(C(=O)OC)=C(c2ccc(OC)cc2)c2ccccc2N1C(=O)OC (configuration not stated),"inconclusive [inhibitor, full curve]",
Cc1ccc(-c2noc(CCC(=O)N3CCCc4ccccc43)n2)cc1,,inconclusive: -14.2% [inhibitor]
COc1cc(SC)ccc1C(=O)N1CCCc2ccccc21,"inconclusive [inhibitor, partial curve]",
COc1ccc(S(=O)(=O)Nc2ccc(Cc3ccncc3)cc2)cc1C,"inconclusive [inhibitor, partial curve]",
O=C1c2ccccc2C(O)(c2ccccc2)N1CCc1ccccc1 (configuration not stated),"inconclusive [inhibitor, partial curve]",
Cc1cccc(CC(=O)NCC2CCCCC2)c1,inactive,
Cc1ccc(C(=O)N/C(=C\c2ccc(-c3ccccc3[N+](=O)[O-])o2)C(=O)NCCCN(C)C)cc1,inactive,
CN1CCN(/N=C/c2ccc(N(c3ccccc3)c3ccccc3)cc2)CC1,inactive,
CCc1nc2ccc(C(=O)N(C)CCCN(C)C)cn2c1N(C)Cc1cc2ccccc2s1,inactive,
CCCCC[C@@H]1C=C(C(=O)O)[C@H](c2ccc(Br)cc2)N1S(=O)(=O)c1ccc(C)cc1,"inconclusive [inhibitor, full curve]",
Cc1onc(-c2c(Cl)cccc2Cl)c1C(=O)c1ccc(F)cc1,"inconclusive [inhibitor, full curve]",
Cc1ccc(Cn2nc3c(cc2=O)CCc2ccccc2-3)cc1,"inconclusive [inhibitor, partial curve]",
Cc1cc(Nc2ccccc2)c2c([N+](=O)[O-])ccc(C)c2n1,"inconclusive [inhibitor, partial curve]",
FC(F)(F)c1cc(-c2ccccc2)nc(N2CCCCCC2)n1,inactive,
Clc1cccc(NCc2ccccc2)n1,"inconclusive [inhibitor, partial curve]",
CN(C)C=Nc1nonc1-c1ccccc1,"inconclusive [inhibitor, full curve, poor fit]",
COc1cc2c(-c3ccc4c(c3)OCO4)c(-c3ccsc3)oc(=O)c2cc1OC,"inconclusive [inhibitor, single point]",
O=C(/C=C/c1ccccc1Cl)Nc1ccc(Cl)cn1,"inconclusive [inhibitor, single point]",
COCCNC(=O)c1cccc(OC2CCN(Cc3cccc(C(C)=O)c3)CC2)c1,inactive,
Cc1ccc(-c2cnn(-c3ccccc3)c2N)cc1,"inconclusive [inhibitor, partial curve]",
CN(C)CCCN(C(=O)c1ccc([N+](=O)[O-])s1)c1nc2cc3c(cc2s1)OCCO3,"inconclusive [inhibitor, single point]",

SMILES,Potency,"activity, negative = inhibition"
COc1ccccc1Nc1nc2nonc2nc1N1CCCCC1C (configuration not stated),"inconclusive [inhibitor, single point]",
CC1(Cc2ccc(C(F)(F)F)o2)C(=O)Nc2ccc(-c3cccc(C(F)(F)F)c3)cc21 (configuration not stated),"inconclusive [inhibitor, full curve]",
O=c1oc2ccccc2c(NC2CCCCC2)c1NS(=O)(=O)c1ccc(Br)cc1,"inconclusive [inhibitor, partial curve, poor fit]",
Cc1cc(N(C)Cc2ccccc2)nc2cc(O)ccc12,"inconclusive [inhibitor, single point]",
O=C(c1ccccc1Br)N1CCc2c([nH]c3ccccc23)C1,"inconclusive [inhibitor, partial curve]",
Cc1ccc(NC(=O)CN(C)Cc2c(O)ccc3ccccc23)cc1,inactive,
O=C(COc1ncnc2cc(Cl)ccc12)c1ccc2c(c1)OCCO2,inactive,
Cc1nc2ccccc2nc1CC(O)(c1ccccc1)c1ccccc1,"inconclusive [inhibitor, single point]",
CN(C)c1ccc(N=Nc2ccccc2C(=O)OCC(=O)N2CCCC2)cc1,"inconclusive [inhibitor, single point]",
CCN(C1CCCCC1)S(=O)(=O)c1ccc(OC)c(C)c1,"inconclusive [inhibitor, partial curve]",
C#CCOc1ccc(/C=C2/C(=O)ON=C2C)cc1Br,"inconclusive [inhibitor, full curve, poor fit]",
Cc1ccc(C(=O)NN=CC(=O)c2ccccc2)c(C)c1,inactive,
CN1CC(c2ccccc2)C(c2ccc(Cl)cc2)=N1 (configuration not stated),"inconclusive [inhibitor, partial curve]",
CCCCCCn1c(=O)n2n(c1=O)C[C@]1(OC(=O)NCc3ccccc3)CN(S(=O)(=O)c3ccc(C)cc3)C[C@]1(O)C2,inactive,
CCSc1nsc(NC(=O)Nc2cccc(F)c2)n1,inactive,
O=C(NCc1nc2ccccc2[nH]1)C1=C[C@@H](c2ccc(Br)cc2)C[C@@H](OCCCCO)O1,"inconclusive [inhibitor, full curve]",
O=C(/C=C/c1ccc(O)c(O)c1)O[C@@H]1C[C@](O)(C(=O)O)C[C@@H](O)[C@H]1O,"inconclusive [inhibitor, single point]",
COc1cccc(-c2cc(C(=O)N3CCN(S(=O)(=O)c4ccc(Br)cc4)CC3)[nH]n2)c1,"inconclusive [inhibitor, full curve]",
C#CCNC(=O)C[C@@H]1C[C@@]2(C(=O)OC)CC(C)(C)CC=C2N(CCCCCCCC)C1=O,"inconclusive [inhibitor, full curve, poor fit]",
COc1cccc(C2=CC(=O)C[C@H](c3ccc(OC)c(OC)c3)C2)c1,"inconclusive [inhibitor, partial curve, poor fit]",
COc1ccc(Nc2cccc3ccccc23)cc1,"inconclusive [inhibitor, partial curve]",
